Data as given in patent US5262521A (SRI International, priority 1991, dated 1993).
Part of at least one peptide drawing is inferred or uncertain, most often the ends. Where a SMILES comes first, the peptide text is derived from it. The star is where a group is joined. Bz = O=C(c1ccccc1)*

Test system: atrial peptide-degrading enzyme (ADE)
Assay: Degradation of peptide substrates by atrial peptide-degrading enzyme preparation (HPLC)
Assay type: biochemical, bovine
Conditions: for % Degraded 1 h / % Degraded 2 h / % Degraded (small peptides): 50 μM substrate, 37° C.; for % Degraded (small peptides): one or two hours

Compound | % Degraded 2 h [%] | % Degraded (small peptides) [%] | further results
CC(C)[C@H](NC(=O)[C@@H](N)CC(=O)O)C(=O)N[C@@H](CC(N)=O)C(=O)N[C@H](C(=O)N[C@@H](CC(=O)O)C(=O)N[C@@H](CCCNC(=N)N)C(=O)N1CCC[C@H]1C(=O)NCC(=O)O)[C@@H](C)O [Anxiety peptide, Asp--Val--Asn--Thr--Asp--Arg--Pro--Gly] (H-DVNTDRPG-OH) | 6 |  | % Degraded 1 h: 4%
N=C(N)NCCC[C@H](NC(=O)[C@H](Cc1ccccc1)NC(=O)[C@H](CO)NC(=O)[C@@H](N)CC(N)=O)C(=O)N[C@@H](Cc1ccc(O)cc1)C(=O)O [Asn--Ser--Phe--Arg--Tyr] (H-NSFRY-OH) |  | 8 | 
N=C(N)NCCC[C@H](NC(=O)[C@H](Cc1ccccc1)NC(=O)[C@H](CO)NC(=O)[C@@H](N)CC(N)=O)C(=O)O [Asn--Ser--Phe--Arg] (H-NSFR-OH) |  | 23 | 
CC(C)C[C@H](NC(=O)[C@H](CCC(=O)O)NC(=O)[C@H](C)NC(=O)[C@H](Cc1ccc(O)cc1)NC(=O)[C@H](CC(C)C)NC(=O)[C@H](CC(=O)O)NC(=O)[C@H](CO)NC(=O)[C@H](CC(=O)O)NC(=O)[C@H](CC(C)C)NC(=O)[C@H](CO)NC(=O)[C@H](CCC(=O)O)NC(=O)[C@H](CCC(=O)O)NC(=O)[C@H](CCCCN)NC(=O)CNC(=O)[C@H](CCCCN)NC(=O)[C@H](C)NC(=O)[C@H](CC(C)C)NC(=O)[C@@H](N)CC(N)=O)C(=O)N[C@@H](CCCNC(=N)N)C(=O)O [C-TAP 1-19, Asn--Leu--Ala--Lys--Gly--Lys--Glu--Glu--Ser--Leu--Asp--Ser--Asp--Leu--Tyr--Ala--Glu--Leu--Arg] (H-NLAKGKEESLDSDLYAELR-OH) | 66 |  | Substrate quality for ADE, in words: good substrate; % Degraded 1 h: 48%
N=C(N)NCCC[C@H](NC(=O)[C@H](Cc1ccccc1)NC(=O)[C@H](CO)NC(=O)CNC(=O)c1ccccc1)C(=O)O [Hip--Ser--Phe--Arg] (Bz-GSFR-OH) |  | 0 | 

Now from value to compound, other results behind:

% Degraded 2 h [%] | % Degraded (small peptides) [%] | Compound | further results
0 |  | CC[C@H](C)[C@H](NC(=O)[C@H](CCCCN)NC(=O)[C@H](CCCCN)NC(=O)[C@H](Cc1ccc(O)cc1)NC(=O)[C@@H](N)CC(C)C)C(=O)N[C@H](C(=O)N[C@@H](CCCCN)C(=O)N[C@@H](CCCCN)C(=O)N[C@@H](CC(C)C)C(=O)N[C@@H](CC(C)C)C(=O)N[C@@H](CCC(=O)O)C(=O)N[C@@H](CO)C(=O)O)[C@@H](C)CC [PF-4 fragment, Leu--Tyr--Lys--Lys--Ile--Ile--Lys--Lys--Leu--Leu--Glu--Ser] (H-LYKKIIKKLLES-OH) | 
 | 17 | N=C(N)NCCC[C@H](NC(=O)[C@@H](N)Cc1ccccc1)C(=O)N[C@@H](Cc1ccc(O)cc1)C(=O)O [Phe--Arg--Tyr] (H-Phe-Arg-Tyr-OH) | 
 | 12 | N=C(N)NCCC[C@H](NC(=O)[C@H](Cc1ccccc1)NC(=O)[C@@H](N)CO)C(=O)N[C@@H](Cc1ccc(O)cc1)C(=O)O [Ser--Phe--Arg--Tyr] (H-SFRY-OH) | 
